Our source for the Kd values is patent publication US12583836B2 (Anaxis Pharma Pty Ltd, priority 2020, dated 2026).

The target in assay [1] is T1, RIP1 (Homo sapiens, UniProt Q13546).
T1 construct: purchased DiscoverX (KINOMEscan service); host or cells: E. coli BL21-derived (T7 phage) or HEK293
T1 sequence (Q13546 1-671): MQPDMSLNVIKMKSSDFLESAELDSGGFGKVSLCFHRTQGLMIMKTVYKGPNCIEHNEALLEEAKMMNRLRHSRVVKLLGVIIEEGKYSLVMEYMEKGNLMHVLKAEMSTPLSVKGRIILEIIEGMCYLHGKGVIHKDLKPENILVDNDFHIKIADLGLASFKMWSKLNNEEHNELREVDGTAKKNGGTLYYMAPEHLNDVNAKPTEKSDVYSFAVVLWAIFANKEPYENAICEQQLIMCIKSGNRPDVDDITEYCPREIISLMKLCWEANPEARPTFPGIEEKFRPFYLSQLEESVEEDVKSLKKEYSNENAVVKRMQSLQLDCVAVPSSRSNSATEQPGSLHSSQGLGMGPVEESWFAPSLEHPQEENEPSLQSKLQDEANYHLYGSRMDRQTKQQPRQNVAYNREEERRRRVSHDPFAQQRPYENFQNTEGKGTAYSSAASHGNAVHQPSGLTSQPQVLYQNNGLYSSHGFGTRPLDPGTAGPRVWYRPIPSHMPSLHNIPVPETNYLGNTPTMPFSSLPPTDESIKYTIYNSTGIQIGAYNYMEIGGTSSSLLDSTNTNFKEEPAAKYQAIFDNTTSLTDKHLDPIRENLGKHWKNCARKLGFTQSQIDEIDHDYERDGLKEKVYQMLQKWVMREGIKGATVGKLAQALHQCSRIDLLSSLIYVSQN
Briefly: KINOMEscan binding assay, RIP1. Particulars: equilibrium dissociation constant, class symbols.

For assay [2], the target named is T2, RIP3 (Homo sapiens, UniProt Q9Y572).
T2 construct: purchased DiscoverX (KINOMEscan service); host or cells: E. coli BL21-derived (T7 phage) or HEK293
T2 sequence (Q9Y572 whole entry): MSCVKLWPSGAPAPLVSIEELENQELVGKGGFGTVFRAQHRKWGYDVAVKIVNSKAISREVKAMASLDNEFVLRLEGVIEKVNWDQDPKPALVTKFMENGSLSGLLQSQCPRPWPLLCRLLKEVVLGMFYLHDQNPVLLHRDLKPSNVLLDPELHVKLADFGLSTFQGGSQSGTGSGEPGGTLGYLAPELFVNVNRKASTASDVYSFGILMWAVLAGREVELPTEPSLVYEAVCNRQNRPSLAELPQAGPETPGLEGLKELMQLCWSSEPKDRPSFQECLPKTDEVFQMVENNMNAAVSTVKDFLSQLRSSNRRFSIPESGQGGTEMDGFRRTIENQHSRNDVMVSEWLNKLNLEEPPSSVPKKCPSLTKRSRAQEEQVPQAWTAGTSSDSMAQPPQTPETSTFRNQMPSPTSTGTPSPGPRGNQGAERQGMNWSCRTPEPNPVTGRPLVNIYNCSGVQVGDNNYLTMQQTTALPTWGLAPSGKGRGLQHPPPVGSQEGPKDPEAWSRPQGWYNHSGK
Put plainly: KINOMEscan binding assay, RIP3. Particulars: equilibrium dissociation constant, class symbols. From the text:
The Hill Slope was set to −1.

Molecules are shown by their SMILES.

Turning to `CCS(=O)(=O)Nc1ccc(-c2n[nH]c(Nc3cnn(C)c3)c2C(N)=O)cc1` [Compound 100, 3-(4-(ethylsulfonamido)phenyl)-5-((1-methyl-1H-pyrazol-4-yl)amino)-1H-pyrazole-4-carboxamide], the Kd in assay [1] and in assay [2] was > 30 µM throughout.

With `CCOc1cc(Nc2[nH]nc(-c3ccc(NS(=O)(=O)CC)cc3)c2C(N)=O)ccn1` [Compound 105, 5-((2-ethoxypyridin-4-yl)amino)-3-(4-(ethylsulfonamido)phenyl)-1H-pyrazole-4-carboxamide], the Kd in assay [1] and in assay [2] was > 30 µM each time.

Take `C#CCS(=O)(=O)Nc1ccc(-c2n[nH]c(Nc3ccnc(OCCOC)c3)c2C(N)=O)cc1` [Compound 109, 5-((2-(2-methoxyethoxy)pyridin-4-yl)amino)-3-(4-(prop-2-yn-1-ylsulfonamido)phenyl)-1H-pyrazole-4-carboxamide]: the Kd in assay [1] is > 30 µM; in assay [2], 1 to 30 µM.

Take `COCCOc1cc(Nc2[nH]nc(-c3ccc(NS(=O)(=O)CCN(C)C)cc3)c2C(N)=O)ccn1` [Compound 116, 3-(4-((2-(dimethylamino)ethyl)sulfonamido)phenyl)-5-((2-(2-methoxyethoxy)pyridin-4-yl)amino)-1H-pyrazole-4-carboxamide]: the dissociation constant (Kd) in assay [1] and in assay [2] was > 30 µM in each case.

For the compound `COCCOc1cc(Nc2[nH]nc(-c3ccc(NS(=O)(=O)CCOC)cc3)c2C(N)=O)ccn1` [Compound 120, 5-((2-(2-methoxyethoxy)pyridin-4-yl)amino)-3-(4-((2-methoxyethyl)sulfonamido)phenyl)-1H-pyrazole-4-carboxamide], the Kd in assay [1] and in assay [2] was > 30 µM each time.

On to `CCS(=O)(=O)Nc1ccc(-c2n[nH]c(Nc3ccnc(C)n3)c2C(N)=O)cc1` [Compound 125, 3-(4-(ethylsulfonamido)phenyl)-5-((2-methylpyrimidin-4-yl)amino)-1H-pyrazole-4-carboxamide], for which the Kd in assay [1] and in assay [2] was > 30 µM each time.

With `NC(=O)c1c(-c2ccc(NS(=O)(=O)CCc3ccccc3)cc2)n[nH]c1Nc1ccccn1` [Compound 130, 3-(4-((2-phenylethyl)sulfonamido)phenyl)-5-(pyridin-2-ylamino)-1H-pyrazole-4-carboxamide], the figures for the Kd in assay [1] and in assay [2] were > 30 µM and 1 to 30 µM, respectively.

Take `NC(=O)c1c(-c2ccc(NS(=O)(=O)c3ccccc3)cc2)n[nH]c1Nc1ccccn1` [Compound 133, 3-(4-(phenylsulfonamido)phenyl)-5-(pyridin-2-ylamino)-1H-pyrazole-4-carboxamide]: the Kd in assay [1] was > 30 µM; in assay [2], 1 to 30 µM.

Regarding `CCS(=O)(=O)Nc1ccc(-c2n[nH]c(Nc3ccc4ccc(Cl)cc4n3)c2C(N)=O)cc1OCc1ccc(F)cc1` [Compound 138, 5-((7-chloroquinolin-2-yl)amino)-3-(4-(ethylsulfonamido)-3-((4-fluorobenzyl)oxy)phenyl)-1H-pyrazole-4-carboxamide], the Kd in assay [1] and in assay [2] was > 30 µM each time.

For `NC(=O)c1c(-c2ccc(NS(=O)(=O)C(F)F)cc2)n[nH]c1Nc1ccc(C(F)(F)F)cn1` [Compound 145, 3-(4-((difluoromethyl)sulfonamido)phenyl)-5-((5-(trifluoromethyl)pyridine-2-yl)amino)-1H-pyrazole-4-carboxamide], the equilibrium dissociation constant (Kd) in assay [1] and in assay [2] was > 30 µM throughout.

Regarding `CCS(=O)(=O)Nc1ccc(-c2n[nH]c(Nc3cccc(C(F)(F)F)n3)c2C(N)=O)cc1Oc1ccc(F)cc1` [Compound 149, 3-(4-(ethylsulfonamido)-3-(4-fluorophenoxy)phenyl)-5-((6-(trifluoromethyl)pyridine-2-yl)amino)-1H-pyrazole-4-carboxamide], the dissociation constant (Kd) in assay [1] and in assay [2] was > 30 µM in each case.

With `NC(=O)c1c(-c2ccc(NS(=O)(=O)CC(F)(F)F)c(Oc3ccc(Cl)cc3)c2)n[nH]c1Nc1cnccn1` [Compound 168, 3-(3-(4-chlorophenoxy)-4-((2,2,2-trifluoroethyl)sulfonamido)phenyl)-5-(pyrazin-2-ylamino)-1H-pyrazole-4-carboxamide], the Kd in assay [1] and in assay [2] was > 30 µM each time.

For `NC(=O)c1c(-c2ccc(NS(=O)(=O)CC(F)(F)F)c(OCc3ccc(F)cc3)c2)n[nH]c1Nc1cccc(C(F)F)n1` [Compound 173, 5-((6-(difluoromethyl)pyridine-2-yl)amino)-3-(3-((4-fluorobenzyl)oxy)-4-((2,2,2-trifluoroethyl)sulfonamido)phenyl)-1H-pyrazole-4-carboxamide], the Kd in assay [1] and in assay [2] was > 30 µM in each case.

With `NC(=O)c1c(-c2ccc(NS(=O)(=O)C(F)F)c(Oc3ccc(F)cc3)c2)n[nH]c1Nc1cnccn1` [Compound 177, 3-(4-((difluoromethyl)sulfonamido)-3-(4-fluorophenoxy)phenyl)-5-(pyrazin-2-ylamino)-1H-pyrazole-4-carboxamide], the Kd in assay [1] and in assay [2] was > 30 µM throughout.

For `CCS(=O)(=O)Nc1ccc(-c2n[nH]c(Nc3cccc(C(F)F)n3)c2C(N)=O)cc1OCc1ccc(F)cc1` [Compound 179, 5-((6-(difluoromethyl)pyridine-2-yl)amino)-3-(4-(ethylsulfonamido)-3-((4-fluorobenzyl)oxy)phenyl)-1H-pyrazole-4-carboxamide], the Kd in assay [1] and in assay [2] was > 30 µM throughout.

`NC(=O)c1c(-c2ccc(NS(=O)(=O)CCC(F)(F)F)c(OCc3ccc(F)cc3)c2)n[nH]c1Nc1cccc(C(F)(F)F)n1` [Compound 182, 3-(3-((4-fluorobenzyl)oxy)-4-((3,3,3-trifluoropropyl)sulfonamido)phenyl)-5-((6-(trifluoromethyl)pyridine-2-yl)amino)-1H-pyrazole-4-carboxamide]: the Kd in assay [1] and in assay [2] was > 30 µM each time.

As to `NC(=O)c1c(-c2ccc(NS(=O)(=O)CCC(F)(F)F)c(OCc3ccc(F)cc3)c2)n[nH]c1Nc1cnccn1` [Compound 184, 3-(3-((4-fluorobenzyl)oxy)-4-((3,3,3-trifluoropropyl)sulfonamido)phenyl)-5-(pyrazin-2-ylamino)-1H-pyrazole-4-carboxamide], the Kd in assay [1] and in assay [2] was > 30 µM throughout.

As for `NC(=O)c1c(-c2ccc(NS(=O)(=O)CC(F)(F)F)c(OCc3ccc(F)cc3)c2)n[nH]c1Nc1ccnc(C(F)(F)F)n1` [Compound 186, 3-(3-((4-fluorobenzyl)oxy)-4-((2,2,2-trifluoroethyl)sulfonamido)phenyl)-5-((2-(trifluoromethyl)pyrimidin-4-yl)amino)-1H-pyrazole-4-carboxamide], the Kd in assay [1] and in assay [2] was > 30 µM each time.

For the compound `NC(=O)c1c(-c2ccc(NS(=O)(=O)CCC(F)(F)F)cc2)n[nH]c1Nc1cccc(C(F)(F)F)n1` [Compound 189, 5-((6-(trifluoromethyl)pyridine-2-yl)amino)-3-(4-((3,3,3-trifluoropropyl)sulfonamido)phenyl)-1H-pyrazole-4-carboxamide], the Kd is > 30 µM in assay [1] and 1 to 30 µM in assay [2].

Regarding `CCS(=O)(=O)Nc1ccc(-c2n[nH]c(Nc3cnccn3)c2C(N)=O)cc1O[C@H](C)c1ccc(F)cc1` [Compound 193, (R)-3-(4-(ethylsulfonamido)-3-(1-(4-fluorophenyl)ethoxy)phenyl)-5-(pyrazin-2-ylamino)-1H-pyrazole-4-carboxamide], the Kd in assay [1] and in assay [2] was > 30 µM each time.

For the compound `CCS(=O)(=O)Nc1ccc(-c2n[nH]c(Nc3ccc(OC)nc3)c2C(N)=O)cc1OCc1ccc(F)cc1` [Compound 197, 3-(4-(ethylsulfonamido)-3-((4-fluorobenzyl)oxy)phenyl)-5-((6-methoxypyridin-3-yl)amino)-1H-pyrazole-4-carboxamide], the dissociation constant (Kd) in assay [1] is > 30 µM; in assay [2] it was 1 to 30 µM.

For the compound `CCS(=O)(=O)Nc1ccc(-c2n[nH]c(Nc3ccccn3)c2C(N)=O)c(OCc2ccc(F)cc2)c1` [Compound 201], the Kd in assay [1] and in assay [2] was > 30 µM each time.

As for `CCS(=O)(=O)Nc1ccc(-c2n[nH]c(Nc3ccc(C(F)(F)F)cn3)c2C(N)=O)cc1OCc1ccc(F)cc1` [Compound 207], the dissociation constant Kd in assay [1] and in assay [2] was > 30 µM in each case.

In the case of `CCS(=O)(=O)Nc1ccc(-c2n[nH]c(Nc3cnccn3)c2C(N)=O)cc1OCc1ccc(OC(F)(F)F)cc1` [Compound 215, 3-(4-(ethylsulfonamido)-3-((4-(trifluoromethoxy)benzyl)oxy)phenyl)-5-(pyrazin-2-ylamino)-1H-pyrazole-4-carboxamide], the Kd in assay [1] and in assay [2] was > 30 µM throughout.

As to `CCS(=O)(=O)Nc1ccc(-c2n[nH]c(Nc3cnccn3)c2C(N)=O)cc1OCc1cccc(C(F)(F)F)c1` [Compound 218, 3-(4-(ethylsulfonamido)-3-((3-(trifluoromethyl)benzyl)oxy)phenyl)-5-(pyrazin-2-ylamino)-1H-pyrazole-4-carboxamide], the Kd in assay [1] and in assay [2] was > 30 µM in each case.
